Assay results: article PMC7904957 (Journal of medical genetics, 2020)

Molecular target: His6-tagged heterodimeric complex composed of TRAPPC3 and TRAPPC6a (human, UniProt O43617; O75865)
Test: pull-down

- binding result: binds
B1: GST-tagged TRAPPC2L p.(Asp37Tyr) (natural protein)
chain: not shown
